{"source": "the supplement of paper PMC12632987", "binders": {"B1": {"name": "traf2_out_20_3_2224 (protein)", "chain": "EELKRRVEEELERIERLLEEARPLLPEEDYERLRRLLEEARRALEEDLTDALVKLSELRRLALELAQEARAAGNEELAALLERMAEEANRAAGLVLKMIE"}, "B2": {"name": "traf2_out_15_48_1367 (protein)", "chain": "DAAAYRAAMNAAADRIIATKDEVKKEVKELAKVASPEVKKKLNEVAKLIEAGAGSQEIIAALKEAAKVASPELKAKLEELAERLRAARREASAIAAAMAK"}, "B3": {"name": "traf2_out_12_187_947 (protein)", "chain": "SVEDELLEAAKEGLRQAKRALEEAGPDDPRIRELLEKLLEAEKALEKDPSIASDLLVAASAALRYVRLLEAGADPEEVAAAAEEALEILDEVLAEAKARE"}, "B4": {"name": "traf2_out_3_89_2293 (protein)", "chain": "SAAQAATLAELRAQAAAYARGFAKSARFVAREMVRDGMSLDTLRGVLNAAATALAEVLAERAKEAGLSDADIAALTAEFTATLDAIVDEVLAEAAARRAA"}, "B5": {"name": "traf2_out_11_169_876 (protein)", "chain": "EEAEKNRKLNDFALELNDKAKKELKEFALKLAKELGLDVEEVKAIFEKNKNKSLSAVAAALIEYFRSKGEEAAAEAILKKHEELKDKINKEFSEKLKELE"}, "B6": {"name": "traf2_out_15_48_1349 (protein)", "chain": "SVEDLHRMNREIADLAEETRDELAKRLEELLKKAPESVKPDLEALLQAARNGATLRDIRGALEALLPKVSPELKAELEEMIAEIDEVLRRMSEIARRVLS"}, "B7": {"name": "traf2_out_19_16_1979 (protein)", "chain": "AEERLEELERRLEEIERRVEELEEYFEKNEETLTREELSDLLVEVSELKREALEIRERLLELEGVDPERVRELIRRAEEIIERAQRLANKIVERYEELLK"}, "B8": {"name": "traf2_out_6_169_2497 (protein)", "chain": "SEEERLREEAERHRERARELLELADTIYEQALKNPDKSLIPTYVEALETMLNALRHHYDRAIEALRKLGKEEEAKELEKEREERVKEMEEKLAELKKLLE"}, "B9": {"name": "traf2_out_9_17_2624 (protein)", "chain": "AEAERARHEAMLRVVERVLEELIEEGLITEEEAEEILEKVRKAIEEGKSVDEVRALFLGDVASVLLFDKKLPVKETQEIVGRVYRRIRRLLAEEEARRAA"}, "B10": {"name": "traf2_out_8_139_2533 (protein)", "chain": "EEEERRRDEVEKRVIGRIMNTMTRIANRAAATQKTKEEAEKTYLEILHLGGRIARALLSGEDPQPYLDKLEALLLSLGLEDEAKEARETVEAARAELEAA"}, "B11": {"name": "traf2_out_18_5_1954 (protein)", "chain": "SREEELREALESAKRILEKEPEIEARAKELGVEELYKQAVKDFTEALENGKDLEKIYLEHKEKFAEKIGDPELAEELVYEIRRYVSAKYAKEVLEEELAA"}, "B12": {"name": "traf2_out_20_3_2169 (protein)", "chain": "SELEEELKKELEKAIKTLKEAAKAADAETKARLDALIKRLKASEKLSPSDRLVAVSEIRREVLELAEEARRAGDEELAKLLEKAADYLGRAAQLLYKIIE"}, "B13": {"name": "traf2_out_16_104_1410 (protein)", "chain": "AAATQAAFDAIIAQLEAIADELGRLANEIYEKMKTASPEDRKKLSDALVEASEARRRALQAAEAARQARATGGDLAAAQATLAALTAEAARVKEKAKALF"}, "B14": {"name": "traf2_out_11_155_721 (protein)", "chain": "SAAREAQNQIVDHNLEIGDELLKEVNKIIEEVAKEDPEVAAKLKEVVEKYKKYSYTSAARAAIDLLREAGLEEEAERLEKALEEAQKKSSEFIQEVEAKL"}, "B15": {"name": "traf2_out_13_95_1050 (protein)", "chain": "SAETAKKIMEVADEMMDKALALLKKAQKEFADDPEATAVLTQALDLAEKKGISEAIHLLEEAQAANPEHAEQFAALIAELEALRREAGRKVAEILKEEKE"}, "B16": {"name": "traf2_out_17_178_1671 (protein)", "chain": "DKEEHRKKISELTDELIDLTERTGRELLALAEAEGRLSPEELAALRAALASGSANTLLAVARRLAPKLSSAAEAQALLDRFEAEYRELAKGIYEEYKKYE"}, "B17": {"name": "traf2_out_16_104_1420 (protein)", "chain": "SAADDAAFDALIAEAEAIAEELGRLANKLYKKLEKASPEEKKKLSDALVEASEARREARQLAEDLRARRAAGGDLAAARAALAALRKRAEEVKKKAEELF"}, "B18": {"name": "traf2_out_18_167_1869 (protein)", "chain": "SAELKKEREKLTDELVKYSTIRRHLLEILEALKESREKARALLEKAVAEHPDSEVLKEALEVFETKSDEEVRAFMESKAEELQKKANEYYKKLEELEKKE"}, "B19": {"name": "traf2_out_14_149_1263 (protein)", "chain": "DRVKAKLDEILALLEEVVAAARRAAAEGTPEAREALFALIREAAERIEELGKELGYSFSVVFVLEDLAARRDLPLEEVLARLEAALARAKDTAEVLKERA"}, "B20": {"name": "traf2_out_20_3_2075 (protein)", "chain": "EELEKELEKRLKEAIKLLKEAAKKADKETAKKLKKLIKELKESEKLSISDRLVAISKVRREVLKLAEEAEAAGKEELAKLLEEAADELNKAAQLAYKILE"}, "B21": {"name": "traf2_out_16_171_1443 (protein)", "chain": "AAAEREAALRAEIDAEAQRLLDRMDTMVEMTPLISKETGLSVEQIAAGFRSAMEDRIAAFEAHFTALAADASPEVRAHLAEALARIRAHLDAAIAEILAK"}, "B22": {"name": "traf2_out_20_3_2267 (protein)", "chain": "EELEKKYEEYLEKAKKILEELMKKSDEETKEKLKEALKLLEESKKVSPTDALVLLGEAKRIVRELREEALRAGNEELAKLLDEAADEINKAMNYLLKIIE"}, "B23": {"name": "traf2_out_11_155_704 (protein)", "chain": "EKKKELQNKLVDEMIKIEDKLKAEVRAIIAAAAAAHPEHAAELAAVVAASAPFSGTSFARVAAAKFRELGLEEEAAQIEELLEKAQKEKNKIYKEIEKKM"}, "B24": {"name": "traf2_out_19_16_1972 (protein)", "chain": "KEEELERIEKRLEEIEKRVEELEKYFEENEETLTREELSDLLVETSELKREAQRLKEELEKLEDYDPERVERLKKRAEEIIERAQRLANRIVDKYLELLK"}, "B25": {"name": "traf2_out_14_149_1248 (protein)", "chain": "AAEAELLRKAAELNEFIAKKLEEILKLLKEGKYEEAKKLLKKAIEEAKKLGEKLGVSTSQIFEMEELLELLDKNKEEAKKYAERLLKKARDAAEVLRSIA"}, "B26": {"name": "traf2_out_11_169_845 (protein)", "chain": "AEAEKNRKINDKALELNDKAKAELEKYVLELAKEEGLDVEAVKAIFEKNKNKSLSAVAAALIEYFKSLGKEDAAKAVLEKYEELKEEINKEMSAFLKELE"}, "B27": {"name": "traf2_out_17_178_1676 (protein)", "chain": "TKEEKRKKISELTDKYIDLAEATAARLLALAEAEGFMTPEELAALRAAQRRGNGRLVEALLERAIPRSPRAAEVAALLADYRARSRELAKEIAKALEEYE"}, "B28": {"name": "traf2_out_19_16_1977 (protein)", "chain": "KKEELEKLKKELEEIKKRVKELKKYFEENKDKLTREELSDLLVETSELKREALEIKQKLEELKDYDKEEVEKLIKEAEEVIKEAQRLMNKLVDRYLSLLK"}, "B29": {"name": "traf2_out_20_3_2191 (protein)", "chain": "SELEKKLEEELEKAIELLKKAAKLADPETAKKIEELIKRIKESRKLSYEDRLVVLSEVRREVLLLAEEAKKEGKEELAKVLEKAADALNRAMNILMKIIE"}}, "note": "Whole data set: some 1,800 sequences, median “median log2 fold change of GCK-ALFA target abundance (FLAG IP / Myc IP barcode read proportion)” near 0.14, cut for the lowest 2% near -0.84. This is one part of the list."}
{"biological_target": "T1, TRAF2, Q12933", "T1 chain": "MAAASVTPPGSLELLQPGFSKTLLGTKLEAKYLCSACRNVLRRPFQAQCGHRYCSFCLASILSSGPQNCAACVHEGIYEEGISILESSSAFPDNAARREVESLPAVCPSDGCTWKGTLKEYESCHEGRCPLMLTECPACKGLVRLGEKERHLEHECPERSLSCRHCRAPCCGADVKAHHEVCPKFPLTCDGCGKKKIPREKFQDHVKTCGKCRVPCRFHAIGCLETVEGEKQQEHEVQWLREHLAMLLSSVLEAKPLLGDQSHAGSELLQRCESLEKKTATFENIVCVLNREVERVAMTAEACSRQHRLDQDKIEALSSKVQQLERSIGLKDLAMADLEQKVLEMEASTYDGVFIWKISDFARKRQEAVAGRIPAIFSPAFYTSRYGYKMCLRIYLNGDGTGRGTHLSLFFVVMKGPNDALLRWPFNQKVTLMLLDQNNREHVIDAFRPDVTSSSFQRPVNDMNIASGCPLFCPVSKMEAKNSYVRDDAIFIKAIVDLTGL", "assay": "median log2 fold change of GCK-ALFA target abundance (FLAG IP / Myc IP barcode read proportion) (log2 ratio); each designed protein is fused to an ALFA-tag nanobody in HEK293 cells to bring the named protein to FLAG-tagged glucokinase (GCK); Myc marks an untargeted standard; higher = target protein stabilised (more abundant)", "conditions": "target protein: 3xFLAG-MCP-GCK-ALFA reporter; HEK293 landing pad (RPLP)", "in_short": "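Sequencing of reverse-transcribed, amplified circular RNA barcodes from anti-FLAG and anti-Myc immunoprecipitates provided the readout for an ALFA-nanobody-fused binder library recombined into HEK293 landing-pad cells. Those cells were induced with 2 μg mL^−1 doxycycline, transfected with a plasmid expressing a FLAG-tagged target and a Myc-tagged standard, and lysed after 48 h. Target abundance is the per-binder median log2 ratio of FLAG to Myc barcode read proportions. Only barcodes at a proportion of ≥10^−7 in both replicates and binders with ≥3 barcodes per replicate were kept, with a 10^−6 pseudocount added before the two replicates were pooled.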"}
{"binder": "B1", "median log2 fold change": 0.141}
{"binder": "B2", "median log2 fold change": -0.184}
{"binder": "B3", "median log2 fold change": 0.218}
{"binder": "B4", "median log2 fold change": -0.614}
{"binder": "B5", "median log2 fold change": -0.227}
{"binder": "B6", "median log2 fold change": 0.186}
{"binder": "B7", "median log2 fold change": 0.263}
{"binder": "B8", "median log2 fold change": 0.331}
{"binder": "B9", "median log2 fold change": -0.102}
{"binder": "B10", "median log2 fold change": 0.0288}
{"binder": "B11", "median log2 fold change": 0.118}
{"binder": "B12", "median log2 fold change": 0.0887}
{"binder": "B13", "median log2 fold change": 0.302}
{"binder": "B14", "median log2 fold change": 0.302}
{"binder": "B15", "median log2 fold change": 0.0662}
{"binder": "B16", "median log2 fold change": 0.0387}
{"binder": "B17", "median log2 fold change": 0.673}
{"binder": "B18", "median log2 fold change": -0.0291}
{"binder": "B19", "median log2 fold change": 0.166}
{"binder": "B20", "median log2 fold change": 0.208}
{"binder": "B21", "median log2 fold change": -0.0454}
{"binder": "B22", "median log2 fold change": 0.634}
{"binder": "B23", "median log2 fold change": 0.154}
{"binder": "B24", "median log2 fold change": -0.00565}
{"binder": "B25", "median log2 fold change": 0.0696}
{"binder": "B26", "median log2 fold change": 0.112}
{"binder": "B27", "median log2 fold change": -0.865}
{"binder": "B28", "median log2 fold change": -0.295}
{"binder": "B29", "median log2 fold change": -0.102}
